# Several values for one entry are separate records, joined by “and”; a condition that tells them apart may be missing. Identical values can stand only once. Over roughly 2,900 compounds, “IRF Lucia reporter activity, fold change vs agonist alone” has its median near 0.9; the highest 2% begin near 2.8. This is one part of the list.
# Assays:
# RAW-Dual [1] = assay: IRF Lucia reporter activity, fold change vs agonist alone; cytotoxicity flag (confluency mask): not cytotoxic; higher = enhanced IRF activity
# How it was run: (§1)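 RAW-Dual macrophages were seeded in DMEM at 50,000 cells/well in 384-well plates, given 50 nL of library stock by pin tool, and given a PRR agonist 1 h later. Plates were held at 37 °C, 5% CO2 for 20 hours, after which supernatant was read for IRF by QuantiLuc luminescence and for NF-κB by QuantiBlue absorbance at 620 nm. Reporter activity is expressed as fold change over wells that received agonist alone. A well was called cytotoxic when IncuCyte confluency fell below 70% of agonist controls in both mask sets.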
# RAW-Dual [2] = assay: IRF Lucia reporter activity, fold change vs agonist alone; higher = enhanced IRF activity; conditions: library stock concentration (final ~1000-fold dilution): 10 mM, agonist: MPLA (TLR4) […]
# How it was run: as §1
# RAW-Dual [3] = assay: IRF Lucia reporter activity, fold change vs agonist alone; cytotoxicity flag (confluency mask): cytotoxic (confluency <70% of control); higher = enhanced IRF activity
# How it was run: as §1
# [4] = agonist: 3'3'-cGAMP (STING) 10 ug/mL
# [5] = cytotoxicity flag (confluency mask): not cytotoxic
smiles,measurement,setting,value
CN(C)CCOC(=O)COc1ccc(Cl)cc1.Cl (library stock concentration (final ~1000-fold dilution): 10 mM),IRF Lucia reporter activity,RAW-Dual [1]; [4],0.862
same,IRF Lucia reporter activity,RAW-Dual [1]; agonist: LPS (TLR4) 0.1 ug/mL,1.04
CN(C)CCOC(=O)COc1ccc(Cl)cc1.Cl,IRF Lucia reporter activity,RAW-Dual [2]; [5],0.877
COc1cc(-c2oc3cc(O)cc(O)c3c(=O)c2OC2OC(CO)C(O)C(O)C2OC2OC(C)C(O)C(O)C2O)ccc1O (centres undefined) (library stock concentration (final ~1000-fold dilution): 10 mM),IRF Lucia reporter activity,RAW-Dual [1]; [4],1.05
same,IRF Lucia reporter activity,RAW-Dual [1]; agonist: LPS (TLR4) 0.1 ug/mL,1.02
CCCCC(C=O)NC(=O)C(CC(C)C)NC(=O)OCc1ccccc1 (centres undefined) (library stock concentration (final ~1000-fold dilution): 10 mM),IRF Lucia reporter activity,RAW-Dual [1]; [4],1.04
same,IRF Lucia reporter activity,RAW-Dual [1]; agonist: LPS (TLR4) 0.1 ug/mL,1.07
CCCCC(C=O)NC(=O)C(CC(C)C)NC(=O)OCc1ccccc1 (centres undefined),IRF Lucia reporter activity,RAW-Dual [2]; [5],1.2
Cc1sc2c(c1C)C(c1ccc(Cl)cc1)=NC(CC(=O)NCCCCNC(=O)COc1cccc3c1C(=O)N(C1CCC(=O)NC1=O)C3=O)c1nnc(C)n1-2 (centres undefined) (library stock concentration (final ~1000-fold dilution): 10 mM),IRF Lucia reporter activity,RAW-Dual [3]; [4],0.331
same,IRF Lucia reporter activity,RAW-Dual [3]; agonist: LPS (TLR4) 0.1 ug/mL,0.23
CCCCCCCCCCCC(CC1OC(=O)C1CCCCCC)OC(=O)C(CC(C)C)NC=O (centres undefined) (library stock concentration (final ~1000-fold dilution): 10 mM),IRF Lucia reporter activity,RAW-Dual [1]; [4],0.931
same,IRF Lucia reporter activity,RAW-Dual [1]; agonist: LPS (TLR4) 0.1 ug/mL,1.07
CCCCCCCCCCCC(CC1OC(=O)C1CCCCCC)OC(=O)C(CC(C)C)NC=O (centres undefined),IRF Lucia reporter activity,RAW-Dual [2]; [5],1.07
O=C(O)COc1ccc(Br)cc1/C=C1\SC(=S)N(Cc2cccnc2)C1=O (library stock concentration (final ~1000-fold dilution): 10 mM),IRF Lucia reporter activity,RAW-Dual [1]; [4],0.91
same,IRF Lucia reporter activity,RAW-Dual [1]; agonist: LPS (TLR4) 0.1 ug/mL,0.792
COC(=O)NC(C(=O)NC(Cc1ccccc1)C(O)CN(Cc1ccc(-c2ccccn2)cc1)NC(=O)C(NC(=O)OC)C(C)(C)C)C(C)(C)C.O=S(=O)(O)O (centres undefined),IRF Lucia reporter activity,RAW-Dual [2]; [5],0.773
COC(=O)NC(C(=O)NC(Cc1ccccc1)C(O)CN(Cc1ccc(-c2ccccn2)cc1)NC(=O)C(NC(=O)OC)C(C)(C)C)C(C)(C)C.O=S(=O)(O)O (centres undefined) (library stock concentration (final ~1000-fold dilution): 10 mM),IRF Lucia reporter activity,RAW-Dual [1]; [4],0.777
same,IRF Lucia reporter activity,RAW-Dual [1]; agonist: LPS (TLR4) 0.1 ug/mL,0.895
O=C(NOCC(O)CO)c1cc(Br)c(F)c(F)c1Nc1ccc(I)cc1F (centres undefined),IRF Lucia reporter activity,RAW-Dual [2]; [5],2.39
O=C(NOCC(O)CO)c1cc(Br)c(F)c(F)c1Nc1ccc(I)cc1F (centres undefined) (library stock concentration (final ~1000-fold dilution): 10 mM),IRF Lucia reporter activity,RAW-Dual [1]; [4],0.713
same,IRF Lucia reporter activity,RAW-Dual [1]; agonist: LPS (TLR4) 0.1 ug/mL,2.11
CN(C)CC(c1ccc(O)cc1)C1(O)CCCCC1 (centres undefined) (library stock concentration (final ~1000-fold dilution): 10 mM),IRF Lucia reporter activity,RAW-Dual [1]; [4],1.09
same,IRF Lucia reporter activity,RAW-Dual [1]; agonist: LPS (TLR4) 0.1 ug/mL,0.87
CN(C)CC(c1ccc(O)cc1)C1(O)CCCCC1 (centres undefined),IRF Lucia reporter activity,RAW-Dual [2]; [5],0.994
OC1C=C2CCN3Cc4cc5c(cc4C(C1O)C23)OCO5 (centres undefined),IRF Lucia reporter activity,RAW-Dual [2]; cytotoxicity flag (confluency mask): cytotoxic (confluency <70% of control),1.39
OC1C=C2CCN3Cc4cc5c(cc4C(C1O)C23)OCO5 (centres undefined) (library stock concentration (final ~1000-fold dilution): 10 mM),IRF Lucia reporter activity,RAW-Dual [3]; [4],0.281
same,IRF Lucia reporter activity,RAW-Dual [3]; agonist: LPS (TLR4) 0.1 ug/mL,1.24
O=C(O)CCC(=O)OCC(NC(=O)C(Cl)Cl)C(O)c1ccc([N+](=O)[O-])cc1 (centres undefined) (library stock concentration (final ~1000-fold dilution): 10 mM),IRF Lucia reporter activity,RAW-Dual [1]; [4],1.01
same,IRF Lucia reporter activity,RAW-Dual [1]; agonist: LPS (TLR4) 0.1 ug/mL,1.4
O=C(O)CCC(=O)OCC(NC(=O)C(Cl)Cl)C(O)c1ccc([N+](=O)[O-])cc1 (centres undefined),IRF Lucia reporter activity,RAW-Dual [2]; [5],1.05
O=C(c1ccccc1)c1ccc2n1CCC2C(=O)O (centres undefined),IRF Lucia reporter activity,RAW-Dual [2]; [5],0.956
O=C(c1ccccc1)c1ccc2n1CCC2C(=O)O (centres undefined) (library stock concentration (final ~1000-fold dilution): 10 mM),IRF Lucia reporter activity,RAW-Dual [1]; [4],1.08
same,IRF Lucia reporter activity,RAW-Dual [1]; agonist: LPS (TLR4) 0.1 ug/mL,0.955
CCC(CC)(NC(=O)C(C)C)C(=O)NC(CCCNC(=N)N)C(=O)NC1(C(=O)NC(c2ccc(F)cc2)c2ccc(F)cc2)CCCC1 (centres undefined),IRF Lucia reporter activity,RAW-Dual [2]; [5],1.14
CCC(CC)(NC(=O)C(C)C)C(=O)NC(CCCNC(=N)N)C(=O)NC1(C(=O)NC(c2ccc(F)cc2)c2ccc(F)cc2)CCCC1 (centres undefined) (library stock concentration (final ~1000-fold dilution): 10 mM),IRF Lucia reporter activity,RAW-Dual [1]; [4],1.27
same,IRF Lucia reporter activity,RAW-Dual [1]; agonist: LPS (TLR4) 0.1 ug/mL,0.857
Cc1cccc(-c2nc(C(C)(C)C)[nH]c2-c2ccc3nccnc3c2)n1,IRF Lucia reporter activity,RAW-Dual [2]; [5],0.695
Cc1cccc(-c2nc(C(C)(C)C)[nH]c2-c2ccc3nccnc3c2)n1 (library stock concentration (final ~1000-fold dilution): 10 mM),IRF Lucia reporter activity,RAW-Dual [1]; [4],0.874
same,IRF Lucia reporter activity,RAW-Dual [1]; agonist: LPS (TLR4) 0.1 ug/mL,0.842
Cc1ccc(S(=O)(=O)O)cc1.Cn1cc(-c2ccc(F)c(C(F)(F)F)c2)nc1C1CCN(c2ncnc3[nH]ncc23)CC1 (library stock concentration (final ~1000-fold dilution): 10 mM),IRF Lucia reporter activity,RAW-Dual [1]; [4],0.8
same,IRF Lucia reporter activity,RAW-Dual [1]; agonist: LPS (TLR4) 0.1 ug/mL,0.712
CC1COc2c(N3CCN(C)CC3)c(F)cc3c(=O)c(C(=O)O)cn1c23 (centres undefined) (library stock concentration (final ~1000-fold dilution): 10 mM),IRF Lucia reporter activity,RAW-Dual [1]; [4],1.03 and 0.979
same,IRF Lucia reporter activity,RAW-Dual [1]; agonist: LPS (TLR4) 0.1 ug/mL,0.856 and 0.868
Cl.NCc1ccc(S(N)(=O)=O)cc1,IRF Lucia reporter activity,RAW-Dual [2]; [5],0.974

# Reference: the supplement of paper PMC10037445
